The values below come from PubChem BioAssay AID1346428 (National Center for Advancing Translational Sciences (NCATS), 2018).

The whole screen tested about 48,000 compounds, of which about 1,200 (2.5%) were called active. About 2% were inconclusive and are not listed.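 Rule for the calls: active = activation of at least 60% and not above a set upper limit (about 1 call in 100 departs from these limits); inconclusive = activation of 40% to 60%, or above that upper limit; inactive = activation under 40%.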 The list shows a part of the results.

For this test, the target named is Probable G-protein coupled receptor 32 (Homo sapiens) (UniProt O75388). The test can be described thus: qHTS for Agonists of Human Resolvin D1 Receptor DRV1. Note: 0% is about no effect. The conditions noted are these: CHO-K1 GPR32 beta-arrestin PathHunter luminescence, 90 min; at 76.9 µM; active compounds read high; zero percent set by DMSO-only wells. The method, boiled down: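 Using DMSO wells as EC0, agonist-induced signal was taken as chemiluminescence from beta-Gal reconstituted upon beta-arrestin recruitment to GPR32 in CHO-K1 cells after 90 min compound treatment.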
Chain of UniProt O75388 (O75388 whole entry, looked up): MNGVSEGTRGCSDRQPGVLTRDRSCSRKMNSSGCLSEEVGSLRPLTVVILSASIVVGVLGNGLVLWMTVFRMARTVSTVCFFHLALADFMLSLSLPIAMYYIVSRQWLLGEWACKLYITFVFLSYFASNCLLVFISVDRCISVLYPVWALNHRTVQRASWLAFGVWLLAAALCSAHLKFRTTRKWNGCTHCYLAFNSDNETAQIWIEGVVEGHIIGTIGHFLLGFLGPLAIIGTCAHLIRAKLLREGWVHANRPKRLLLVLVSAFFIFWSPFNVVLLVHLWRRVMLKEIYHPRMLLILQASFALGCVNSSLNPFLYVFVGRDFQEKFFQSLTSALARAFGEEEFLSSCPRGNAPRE
Take `COc1ccccc1C(=O)Nc1ccccc1C(=O)OCc1cc(=O)n2ccsc2n1`: the activation was inactive: -1.26%.

Regarding `COc1ccc(C2(N3CCN(c4cc(C)ccc4C)CC3)C(=O)c3ccccc3C2=O)cc1`, the activation is inactive: -16%. Regarding `CCOc1ccccc1NC(=O)CSc1nc2cc(OC)c(OC)cc2c2nc(CCn3c(C)nc4ccccc43)nn12`, the activation was inactive: 1.54%. Under `CCCN(CCC)C(=O)Cn1c(SCc2cccc(F)c2)nc2cccnc21` stands inactive: -18.1%; under `N#Cc1cccc(NC(=O)C2CCN(S(=O)(=O)c3ccc4c(c3)CCCN4C(=O)C3CCC3)CC2)c1`, inactive: -8.04%; under `CC(C)(C)NC(=O)[C@@H]1CN(Cc2cccnc2)CCN1C[C@@H](O)C[C@@H](Cc1ccccc1)C(=O)N[C@H]1c2ccccc2C[C@H]1O`, inactive: -1.87%. In the case of `Cc1ccc2oc(C(=O)NCC(c3ccc(Cl)cc3)N3CCOCC3)c(C)c2c1` (centres undefined), the activation was inactive: -27.8%.

On to `Cc1nc(-c2ccc(F)cc2)sc1CCNC(=O)c1ccccc1C(F)(F)F`, for which the activation is inactive: 29.4%. Then `Cc1ccc(CNC(=O)c2cc3c(=O)n4cccc(C)c4nc3s2)cc1`, with inactive: 6.16%; and `COc1ccccc1NC(=O)CN1C(=O)C(C)(C)c2ccccc21`, with inactive: 11.8%. For the compound `Cc1ccc(CNC(=O)CN2C(=O)C3CCCCN3c3ccc(C(=O)N(C)C)cc32)cc1` (centres undefined), the activation is inactive: -22.2%. Under `Cc1cccc(CSc2ncc(Cl)c(C(=O)Nc3nnc(C)s3)n2)c1` stands inactive: -12%. Under `Cc1ccc(S(N)(=O)=O)cc1NC(=O)c1c(-c2c(Cl)cccc2Cl)noc1C` stands inactive: -15%; under `O=C(O)c1ccccc1Nc1cccc(OCc2ccc3ccccc3n2)c1`, inactive: 12.4%. Then `CC1=C(C(=O)Nc2ccccc2C)C(c2sccc2C)n2ncnc2N1` (centres undefined), with inactive: 17.3%. On to `CN1CCC(N(Cc2cccs2)c2ccccc2)CC1`, for which the activation is inactive: 10.4%. `O=C(Nc1nnc(N2CCCC2)s1)Nc1cc(F)ccc1F`: the activation is inactive: -2.7%. Consider `COc1ccc(NC(=O)CCn2nc(-c3ccc(Cl)cc3)c3ccccc3c2=O)cc1`, for which the activation was inactive: 10.4%. Under `Cc1oc(-c2cccc(Cl)c2)nc1CN1CCC(C(=O)NCc2ccc(F)cc2)CC1` stands inactive: -2.55%; under `O=C(NCCc1ccccc1)c1c2c(nc3ccccc13)C(=O)N(C1CCCCC1)C2`, inactive: -21.2%; under `COc1cccc(NC(=O)Cc2ccc(NC(=O)N3CCCCc4ccccc43)cc2)c1`, inactive: 17.1%. Then `CCCN1C(=O)c2[nH]nc(-c3ccc(F)cc3)c2C1c1ccc(O)c(OCC)c1` (centres undefined), with inactive: -20.1%; and `Nc1ccc(N)c([N+](=O)[O-])c1`, with inactive: -103%. Under `O=C(COCCOCCOCC(=O)Nc1c(I)cc(I)c(C(=O)O)c1I)Nc1c(I)cc(I)c(C(=O)O)c1I` stands inactive: -44.1%; under `C=CCOc1cc(Cl)ccc1C(=O)NCCN(CC)CC`, inactive: -14.8%.

In the case of `Cc1cccc(-c2nc3c4ccccc4n(CC(=O)Nc4cc(F)ccc4F)c(=O)n3n2)c1`, the activation was inactive: -4.98%. With `Cc1ccc(N2C(=O)CSC23C(=O)Nc2ccccc23)cc1F` (centres undefined), the activation was inactive: 3.51%. As for `CCOC(=O)c1c(-c2ccccc2)oc2ccc(OCc3ccc(C)cc3)cc12`, the activation is inactive: -21.5%. Under `Cc1ccccc1Cn1c(=O)n(CCCCC(=O)NCc2ccc3c(c2)OCO3)c(=O)c2ccccc21` stands inactive: -1.7%; under `Cc1cc2c(n1-c1ccc(C(=O)NCc3cccc(Br)c3)cc1)CCC(C)C2` (centres undefined), inactive: -16.2%.

Regarding `CCOc1ccc(C(=O)Nc2c(C)nc(Nc3ccccc3)nc2Nc2ccccc2)cc1OCC`, the activation was inactive: -4.84%. Then `COc1ccc(S(=O)(=O)Nc2c(C)n(C)n(-c3ccccc3)c2=O)cc1Br`, with inactive: -12.2%; and `COc1ccc(C(=O)Cn2c(=O)n3nc(CCn4nc(C)cc4C)nc3c3cc(OC)c(OC)cc32)cc1`, with inactive: 1.82%. As for `CC(C)Nc1cc(N2CCN(C3CCCCC3)CC2)c2noc3c2c1C(=O)c1ccccc1-3`, the activation is inactive: -5.35%. Then `COc1ccc(CCNc2nc(-c3ccccc3OC)cc(C(F)(F)F)n2)cc1OC`, with inactive: 22.1%; and `COc1ccccc1N1CCN(C(=O)CSc2nc(C)cc(=O)[nH]2)CC1`, with inactive: -4.75%.

Turning to `CCOc1ccccc1CNC(=O)C1=C(C)C(=O)OC12CCN(C(C)=O)CC2`, the activation was inactive: -6.06%. Then `O=C(c1ccc(Br)cc1)N1CCC(c2nc3ccccc3s2)CC1`, with inactive: 42.5%; and `CCOc1ccc(CNC(=O)C(C)n2ncn3cccc3c2=O)cc1` (centres undefined), with inactive: 2.54%; and `CCOC(=O)c1[nH]c(C)c(CCC(=O)Nc2ccc(C)cc2Cl)c1C`, with inactive: 0.479%.

Turning to `COc1cccc(C(=O)Nc2nc3nc(C)c(Cc4ccccc4)c(=O)n3[nH]2)c1`, the activation is inactive: 15.2%. In the case of `Cc1cccc(N2C(=O)C(CC(=O)Nc3ccccc3)N(C3CCCCC3)C2=O)c1` (centres undefined), the activation was inactive: -19.5%. Then `CCOC(=O)c1c(C)[nH]c(C)c1S(=O)(=O)N(C)CC(=O)N1CCN(c2cccc(C)c2C)CC1`, with inactive: 8.48%; and `Cn1c(=O)c2[nH]c(Br)nc2n(C)c1=O`, with inactive: -2.47%. Under `COC(=O)c1ccc(NC(=O)CC2C(=O)N(c3cccc(C)c3)C(=O)N2Cc2ccco2)cc1` (centres undefined) stands inactive: -24%; under `CCOC(=O)c1c(C)oc2nc(C)nc(NCCCN3CCN(c4ccccc4OC)CC3)c12`, inactive: -8.44%; under `Cc1nn(C)c2c1c(-c1ccccc1)cc(=O)n2Cc1ccc(Br)cc1F`, inactive: -6.89%. In the case of `COc1ccccc1C(=O)Nc1ccccc1C(=O)OCc1cc(=O)n2c(C)csc2n1`, the activation was inactive: -7.59%. Then `Cc1ccc(OCC(=O)N(Cc2ccc(N(C)C)cc2)CC2CCCO2)cc1C` (centres undefined), with inactive: -11.4%; and `CCCCOc1ccc(NC(=O)c2cc3c(n(-c4ccc(Cl)cc4)c2=O)CCCC3=O)cc1`, with inactive: 1.9%. Turning to `Cc1ccc(CNC(=O)CCCn2c(=O)c3ccccc3n(Cc3ccccc3Cl)c2=O)cc1`, the activation is inactive: -8.34%. Then `CCCC(=O)c1cc2c(cc1NC(=O)c1ccccc1F)OCCO2`, with inactive: -11.5%; and `COc1ccc(-c2cc(C(F)(F)F)nc(SCC(=O)N3CCCCC3)n2)cc1`, with inactive: 1.41%. For `O=C(c1cccc([N+](=O)[O-])c1)N1c2nc(-c3ccco3)nn2C2(CCCCC2)[C@@H]2CCCC[C@@H]21`, the activation is inactive: -32.3%.
